Data reported in the supplement of paper PMC5499739.
The full ranking holds about 16,000 sequences; the median of “Z-score” is about -0.37, and the highest 2% start at about 3.2. Some of the results follow.

System: RBM10 RRM1-ZnF (GST-tagged construct)
Experiment: RNAcompete 7-mer binding Z-score; higher = stronger binding preference
Procedure, shortened: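 A one-sided Z-score for enrichment, taken across the probes containing each heptamer motif, was assigned to every such motif. The RNA came from a designed pool of 241 399 sequences up to 41 nt (1.5 nmol), bound by 20 pmol of GST-tagged RBM10 constructs in 1 ml Hepes pH 7.8 buffer with glutathione Sepharose beads for 30 min at 4°C. Four 2-min washes at 4°C preceded identification of bound RNA by microarray hybridisation.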

Row | Sequence | RNAcompete 7-mer binding Z-score
1 | AUCCAGU | -0.626
2 | CACGCCC | -0.516
3 | CAUUAUC | -0.753
4 | AUAGUGA | 0.67
5 | CCCGUGU | -0.285
6 | UGGCUGC | 0.0788
7 | CCAAACG | -0.396
8 | UAGUACA | -0.162
9 | GUCGUUU | -0.145
10 | GCAGAAA | 0.387
11 | GACUGGC | -0.00246
12 | UUCAUAG | -0.659
13 | UGAUCGA | -0.23
14 | AACCGGU | -0.149
15 | GAGUUUU | -0.0382
16 | UUUAGGC | -0.321
17 | AACUUUC | -0.85
18 | CUAUGAG | -0.233
19 | CCUACCU | -0.766
20 | GGGGCAA | 2.79
21 | UAGCUCC | -0.672
22 | UGUACGC | -0.022
23 | UCCCCUG | -0.158
24 | CUCCGCG | -0.477

Row | Sequence | RNAcompete 7-mer binding Z-score
25 | AAGGCUG | 0.859
26 | AUCUGAU | -0.668
27 | UUGUGGC | 0.0788
28 | AUGAUGG | 2.89
29 | GACGGCG | 0.673
30 | CCGCUUG | -0.665
31 | GGGUCAU | 1.32
32 | CACACUC | -0.604
33 | GAGCUGC | -0.0414
34 | GGAUCCG | 0.342
35 | CUUGAAA | -0.584
36 | GGAACAU | 0.524
37 | AAUGUUA | -0.175
38 | CCGUCUG | -0.694
39 | CGGUGAU | 0.586
40 | UGUACUA | -0.415
41 | CCCUAAG | -0.493
42 | AAAGAGG | 1.51
43 | CAAACGC | -0.626
44 | AACGACG | -0.279
45 | CCUCCAU | -0.805
46 | GAUAUAG | 0.592
47 | CUGCGUC | -0.591
48 | CGUAUGC | -0.542

Row | Sequence | RNAcompete 7-mer binding Z-score
49 | ACUCUAU | -0.847
50 | GGGGAUU | 2.75
51 | UUGGGAA | 2.12
52 | CUCGGCA | -0.613
53 | ACACCUC | -0.685
54 | GCAAGGG | 3.46
55 | GACAACC | -0.428
56 | CAAAGGU | 1.15
57 | CUUAAAU | -0.629
58 | GUGCCUA | -0.308
59 | CCAGUCG | -0.457
60 | UUCUGCA | -0.75
61 | AUACGAC | -0.422
62 | UGUGAUC | -0.34
63 | CCUCCUG | -0.746
64 | UUUAGUA | -0.558
65 | CUUACUU | -0.798
66 | CAAUAUU | -0.711
67 | UGCCGAG | -0.158
68 | CCUUGUA | -0.733
69 | CUAGGUG | 0.719
70 | CUAUGGG | 1.13
71 | ACAUGGC | 0.192
72 | UACCAAU | -0.727

Row | Sequence | RNAcompete 7-mer binding Z-score
73 | UGAUGAG | 0.573
74 | CUGUGCU | -0.782
75 | CUAGGGG | 2.46
76 | AUCGCUC | -0.678
77 | GGCCCCG | 0.176
78 | UGAAUGG | 2.5
79 | GGAAGCG | 2.9
80 | CGUAGGU | 0.949
81 | UCUCUUU | -0.841
82 | CAGGGGU | 3.01
83 | UAGAGAU | 0.27
84 | UGCAUGU | -0.217
85 | AGCCCAG | -0.181
86 | UAACCGG | -0.285
87 | CGAAUUA | -0.467
88 | UCUGUAG | -0.467
89 | UGAAGCC | -0.48
90 | AGUGCCA | -0.35
91 | AUUAAAC | -0.636
92 | ACUUGGA | 0.313
93 | GACCUAU | -0.863
94 | UGGUGCC | 0.433
95 | CUCAUUG | -0.672
96 | AAAAUUC | -0.675

Row | Sequence | RNAcompete 7-mer binding Z-score
97 | CCACCGC | -0.353
98 | GUCGCUU | -0.623
99 | GUGUCGA | 0.108
100 | GGAAAAC | 1.1
101 | ACCAAGA | -0.636
102 | UGCUUGU | -0.636
103 | UCACACU | -0.467
104 | GCAUGGU | 1.14
105 | CCCUGUG | -0.327
106 | ACAGGAU | 1.24
107 | GCUGGCA | 0.163
108 | UGACCAG | -0.0609
109 | CAAAUAA | -0.451
110 | CUGUCCC | -0.652
111 | UCACCCC | -0.334
112 | GUAGGUC | 1.11
113 | CGAGAUA | -0.0707
114 | GCAAACC | -0.412
115 | GCCGCAC | -0.506
116 | GAAUCGU | -0.337
117 | AUCGCGA | -0.386
118 | GGACUGU | 0.498
119 | AGUCGUU | -0.191
120 | UGUGCCA | -0.542

Row | Sequence | RNAcompete 7-mer binding Z-score
121 | ACGUUAG | -0.233
122 | AUCCUCA | -0.805
123 | GUGUUUU | 0.134
124 | CUACACU | -0.594
125 | CCUGCCA | -0.831
126 | UCCUUAU | -0.844
127 | GACUGUG | -0.119
128 | UGCAAAA | -0.415
129 | CCCCUUA | -0.646
130 | UGAAUCA | 0.0105
131 | AGUAAGU | 0.137
132 | ACCGUGG | 0.329
133 | UCCCCGU | -0.425
134 | AGAAUGG | 3.27
135 | UAAAGCA | -0.311
136 | UCAAGGG | 1.16
137 | AAACUUU | -0.772
138 | UGAGUCA | -0.11
139 | UAGUUGC | -0.22
140 | AGGGGGU | 3.09
141 | GUGAUCC | -0.262
142 | CCCUGAG | -0.311
143 | CUGAUGC | -0.5
144 | GUAAAAA | 0.144

Row | Sequence | RNAcompete 7-mer binding Z-score
145 | AGCUGGG | 2.33
146 | AACAUGU | -0.181
147 | GUACAUG | 0.823
148 | AGCUAUG | -0.168
149 | ACCUAUG | -0.753
150 | CUAACUG | -0.444
151 | CGAAGCC | -0.483
152 | GCAGCUU | -0.418
153 | CCUAUCA | -0.854
154 | GAGGCUU | -0.223
155 | GGCAAUG | 1.23
156 | CAGCUUG | -0.529
157 | CGAACUU | -0.789
158 | CGGUGAG | 1.42
159 | GAAUCAG | 0.469
160 | AGCUAGC | -0.487
161 | GCCCUCG | -0.552
162 | UUCACCG | -0.694
163 | ACUAAUC | -0.552
164 | CGAAGCU | -0.691
165 | UCCAUCG | -0.655
166 | UACCCUC | -0.756
167 | GCAGUGG | 1.75
168 | GGUACUG | 0.966

Row | Sequence | RNAcompete 7-mer binding Z-score
169 | UUUGAUA | -0.444
170 | GACAACA | -0.311
171 | AUAUUUA | -0.668
172 | UGCGGGG | 3.26
173 | UGAAAGA | 0.261
174 | UCCGCAG | -0.464
175 | UCAACUG | -0.477
176 | GUUCGGA | -0.0739
177 | CUUGAAG | -0.412
178 | CUCUUAU | -0.863
179 | AUUUACG | -0.555
180 | CCCAUGG | 0.0528
181 | CCAUAGG | -0.347
182 | UAGCAUA | -0.412
183 | UAGCCCC | -0.48
184 | AACUAGG | 0.199
185 | AGGCGUA | 0.459
186 | CGUGACA | -0.282
187 | AAGCGGA | 2.21
188 | UUGCCUU | -0.808
189 | ACACUGU | -0.487
190 | GAGUUGU | 0.0983
191 | AAAUAAA | -0.467
192 | GUUGCGG | 1.46

Row | Sequence | RNAcompete 7-mer binding Z-score
193 | GCUGUUA | -0.607
194 | CCGCGCG | -0.282
195 | UAACCCA | -0.571
196 | UUAACCA | -0.548
197 | UAGCGGC | -0.132
198 | GGAAUCA | 0.693
199 | ACAUUUG | -0.565
200 | CAUCGAA | -0.565
201 | UCAUGGG | 1.29
202 | UCCUCAU | -0.808
203 | GCUGGUG | 1.4
204 | CCUUCUA | -0.821
205 | AUGGAUU | 1.71
206 | UACAUUG | -0.506
207 | GUUCGUC | -0.256
208 | AUAAAAA | -0.412
209 | UACUUAA | -0.681
210 | AAUGACU | -0.269
211 | AAACCGC | -0.75
212 | UAUGUAC | -0.152
213 | UUGCAGA | -0.171
214 | CCCCCGG | 0.102
215 | UUUUGCA | -0.688
216 | CGCGAAU | -0.6

Row | Sequence | RNAcompete 7-mer binding Z-score
217 | GUUGCUC | -0.545
218 | CCCUUCG | -0.746
219 | CAGCCUA | -0.828
220 | GCUGAAG | 0.699
221 | GUGCGGG | 3.06
222 | UUAACCC | -0.665
223 | UCGAGGU | 0.647
224 | AGAUUUG | 0.192
225 | GCGAUAC | -0.331
226 | UCAAUUU | -0.912
227 | CCUGAAC | -0.694
228 | GAUAGUA | 0.287
229 | CUCUCAU | -0.795
230 | CGAAUGC | -0.594
231 | CUCCCGG | 0.0983
232 | AUUACCU | -0.753
233 | GCACUUU | -0.886
234 | CAGGAAC | 0.586
